In all, about 390,000 compounds went through this assay and about 17,000 (4.4%) were called active. Inconclusive means that the source gave no clear call. Such entries were picked first, then a sample of the others. Calls come from the whole dose curve; as a rule, active = well fitted inhibition curve with a large enough effect; inconclusive = small, poorly fitted or top-dose-only effect; inactive = no such curve, though single readings can be large or run the other way. Potencies of inconclusive entries are doubtful fits and often do not repeat.
Each compound was assayed against Lysine-specific demethylase 4A (Homo sapiens) (UniProt O75164) (assay: qHTS Assay for Inhibitors of JMJD2A-Tudor Domain). Details: AlphaScreen JMJD2A-Tudor / H3K4me3 peptide binding; series mostly up to 114 µM.
Note: nearly all actives have a fitted effect of over 50% in size.
Potency is the fitted concentration of half-maximal effect; tags give direction and shape of the fitted curve.

UniProt O75164, sequence (O75164 whole entry, looked up, the tested form may be a part): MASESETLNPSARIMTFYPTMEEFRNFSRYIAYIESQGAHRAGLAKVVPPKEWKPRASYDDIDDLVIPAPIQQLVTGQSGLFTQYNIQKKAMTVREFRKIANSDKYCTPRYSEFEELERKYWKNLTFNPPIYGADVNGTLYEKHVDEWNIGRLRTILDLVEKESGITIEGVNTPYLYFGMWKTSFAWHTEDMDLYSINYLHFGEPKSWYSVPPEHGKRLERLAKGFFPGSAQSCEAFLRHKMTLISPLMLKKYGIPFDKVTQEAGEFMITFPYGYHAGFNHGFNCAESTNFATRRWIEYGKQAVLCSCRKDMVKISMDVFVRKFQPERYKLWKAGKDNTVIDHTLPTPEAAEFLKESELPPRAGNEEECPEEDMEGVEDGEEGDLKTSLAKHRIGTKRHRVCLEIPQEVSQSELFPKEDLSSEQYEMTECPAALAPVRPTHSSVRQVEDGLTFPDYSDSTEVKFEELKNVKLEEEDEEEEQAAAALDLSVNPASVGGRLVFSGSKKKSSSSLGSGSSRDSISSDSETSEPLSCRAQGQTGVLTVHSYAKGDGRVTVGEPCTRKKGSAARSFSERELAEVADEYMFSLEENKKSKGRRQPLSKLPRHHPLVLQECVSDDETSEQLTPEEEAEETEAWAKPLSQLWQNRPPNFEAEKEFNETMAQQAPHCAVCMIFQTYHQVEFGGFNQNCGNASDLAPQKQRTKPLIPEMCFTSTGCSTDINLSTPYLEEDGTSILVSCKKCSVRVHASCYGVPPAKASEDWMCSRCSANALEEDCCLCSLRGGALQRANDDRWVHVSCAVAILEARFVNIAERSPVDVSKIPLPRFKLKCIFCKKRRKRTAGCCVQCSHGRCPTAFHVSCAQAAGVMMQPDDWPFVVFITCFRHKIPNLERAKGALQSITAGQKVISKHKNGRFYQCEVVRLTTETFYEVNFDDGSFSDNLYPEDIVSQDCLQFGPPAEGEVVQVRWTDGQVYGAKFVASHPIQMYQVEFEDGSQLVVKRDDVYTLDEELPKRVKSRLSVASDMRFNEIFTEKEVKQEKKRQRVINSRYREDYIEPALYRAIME

Row | Structure (SMILES) | Potency
1 | Cc1ccc2cc(C)c3nnc(SCC(=O)Nc4nc5c(s4)CCCC5)n3c2c1C | inconclusive: 50.1 µM [inhibitor, partial curve]
2 | COc1ccc2oc(=O)c(C(=O)NCCc3c(C)[nH]c4ccc(C)cc34)cc2c1 | inconclusive: 22.4 µM [inhibitor, full curve]
3 | Cc1ccc2nc3sc(C(=O)N4CCOCC4)c(N)c3cc2c1 | inconclusive: 89.1 µM [inhibitor, partial curve]
4 | COc1ccc2c(Sc3ccc(C)cc3)c(C(=O)NCC(C)c3ccccc3)[nH]c2c1 (stereo not drawn) | inactive
5 | COc1ccc(/C=C(\NC(=O)c2ccc(Cl)cc2)C(=O)NCC2CCCO2)cc1OC (stereo not drawn) | inactive
6 | Cc1ccc(Nc2nc(NCC3CCCO3)nc(N)c2[N+](=O)[O-])cc1 (stereo not drawn) | inconclusive: 17.8 µM [inhibitor, full curve, poor fit]
7 | COC(=O)c1c(NC(C)=O)sc(C(=O)Nc2ccccc2F)c1C | inconclusive: 22.4 µM [inhibitor, full curve]
8 | COc1ccc(Sc2ccc(/C=C3\C(=O)NN(c4ccccc4)C3=O)o2)cc1 | inconclusive: 20 µM [inhibitor, full curve]
9 | Cc1ccc(-c2nc3cc(NC(=O)Cc4ccc(Cl)cc4)ccc3o2)cc1 | inconclusive: 63.1 µM [inhibitor, partial curve, poor fit]
10 | O=C(NC1CCCCC1)c1ccc(-c2ccccc2[N+](=O)[O-])o1 | inconclusive: 56.2 µM [inhibitor, partial curve]
11 | O=C(N=Nc1c(O)[nH]c2ccccc12)Nc1ccccc1 | inconclusive: 56.2 µM [inhibitor, partial curve]
12 | N#Cc1c(NC(=O)CN2C(=O)c3ccccc3C2=O)oc(-c2ccccc2)c1-c1ccccc1 | inconclusive: 20 µM [inhibitor, full curve]
13 | CCC(NC(C)C)C(O)c1ccc(O)c(O)c1 (stereo not drawn) | inconclusive: 20 µM [inhibitor, partial curve, poor fit]
14 | CCCCn1c(=O)[nH]c(=O)c2c1nc(-c1ccc(OCCC)c(OCC)c1)n2C | inconclusive: 44.7 µM [inhibitor, partial curve, poor fit]
15 | CCc1c(C)sc(NC(=O)c2cccs2)c1C(N)=O | active: 89.1 µM
16 | Cc1cccc(C)c1OCC(=O)N/N=C/c1cccn1C | inconclusive: 56.2 µM [inhibitor, partial curve]
17 | CCC(C)(C)NC(=O)C(c1cccc(OC)c1OC)N(CC(C)C)C(=O)CCC(=O)Nc1cc(C)on1 (stereo not drawn) | active: 11.2 µM
18 | COc1cc(/C=N/NC(=Nc2ccc(C)cc2)c2nc3ccccc3s2)ccc1O | inconclusive: 50.1 µM [inhibitor, partial curve]
19 | O=C(NCCN1CCCCCC1)C1CCC(CNS(=O)(=O)c2cccc3cccnc23)CC1 (stereo not drawn) | inconclusive: 63.1 µM [inhibitor, partial curve]
20 | O=[N+]([O-])c1ccc(CSc2ccc(-c3ccccn3)nn2)cc1 | inconclusive: 3.16 µM [inhibitor, single point]
21 | COc1ccc(-n2c(SCC(=O)c3ccc(Cl)cc3)nc3c([nH]c4ccccc43)c2=O)cc1 | inactive
22 | Nc1nonc1-n1nnc(C(=O)N/N=C/c2cc(Br)ccc2O)c1CNc1ccccc1 | inactive
23 | CC(=O)c1cccc(N(C(=O)c2ccco2)C(C(=O)NC2CCCCC2)c2ccc(C)o2)c1 (stereo not drawn) | inconclusive: 79.4 µM [inhibitor, single point]

Row | Structure (SMILES) | Potency
24 | CCOC(=O)c1c(C)n(C)c2ccc(OCC(N)=O)cc12 | inactive
25 | O=C(COC(=O)CCCc1nc2ccccc2s1)NC(=O)NCc1ccco1 | inconclusive: 79.4 µM [inhibitor, partial curve]
26 | COc1ccccc1OCCNC(=O)C1CCN(C(C)=O)CC1 | inactive
27 | Cc1ccc(C)c(Nc2nc3ccccc3[nH]2)c1 | inactive
28 | Cc1ccc(-n2c(-c3ccc(Cl)cc3)n[nH]c2=S)c(C)c1 | inconclusive: 39.8 µM [inhibitor, partial curve]
29 | CSCCC(NC(=O)COc1ccccc1)C(=O)OCc1ccc([N+](=O)[O-])cc1 (stereo not drawn) | inconclusive: 56.2 µM [inhibitor, partial curve]
30 | CCN(CC)c1nc(NN)nc(Nc2ccc(C)c(Cl)c2)n1 | inconclusive: 56.2 µM [inhibitor, partial curve]
31 | Cc1cccc(C)c1OCCCCN1CCCCC1 | active: 28.2 µM
32 | COc1cccc(N=Cc2c(O)n(-c3cccc(C)n3)c(=O)c3ccccc23)c1 | inconclusive: 22.4 µM [inhibitor, full curve]
33 | COc1ccc(C2=C(C=C(C#N)C#N)C(c3ccccc3C)c3ccccc3O2)cc1OC (stereo not drawn) | inconclusive: 5.62 µM [inhibitor, full curve]
34 | NC(=O)C1(N2CCCCC2)CCN(CC(=O)Nc2ccccc2Sc2ccccc2)CC1 | inconclusive: 17.8 µM [inhibitor, full curve, poor fit]
35 | CCC(=O)N1CCN(c2ccc(NC(=O)c3ccc([N+](=O)[O-])o3)cc2)CC1 | inconclusive: 50.1 µM [inhibitor, partial curve]
36 | COc1ccccc1-c1c(C(F)(F)F)oc2cc(OC(=O)c3ccc([N+](=O)[O-])cc3)ccc2c1=O | inconclusive: 44.7 µM [inhibitor, partial curve]
37 | CCOC(=O)/C=C1\CN(C(C)c2ccccc2)S(=O)(=O)c2ccccc21 (stereo not drawn) | active: 79.4 µM
38 | O=C1NC(=S)S/C1=C\c1ccc(SCc2ccccc2)o1 | active: 25.1 µM
39 | COc1ccc(CCC(=O)N2CCCC(Nc3ccc(C)c(C)c3)C2)cc1OC (stereo not drawn) | inconclusive: 44.7 µM [inhibitor, partial curve]
40 | CCOC(=O)c1c(C)n(C)c2ccc(OCC(O)Cn3nc(C)c(Br)c3C)cc12 (stereo not drawn) | inconclusive: 17.8 µM [inhibitor, full curve, poor fit]
41 | COc1ccc(N2CCN(C(=O)Cc3ccc(S(=O)(=O)N4CCOCC4)s3)CC2)cc1 | active: 44.7 µM
42 | Cc1nc2ccccn2c1/C(O)=C1\C(=O)C(=O)N(CCN2CCOCC2)C1c1cccnc1 (stereo not drawn) | inconclusive: 22.4 µM [inhibitor, full curve, poor fit]
43 | COc1ccc(NC(=O)Cn2nnc(-c3nc(-c4ccncc4)no3)c2N)cc1OC | inactive
44 | O=C1NNC(c2ccccc2)=N/C1=C\c1ccccc1 | inactive
45 | C=CCNc1sc(C(=O)c2ccccc2)c(N)c1-c1nc2ccccc2s1 | inconclusive: 22.4 µM [inhibitor, single point]
46 | C/C(CC(=O)Nc1ccc(Br)cc1)=N\NC(=O)c1cccc(O)c1 | inconclusive: 56.2 µM [inhibitor, partial curve]

Row | Structure (SMILES) | Potency
47 | Clc1cccc(-c2sc(Nc3ccccc3)n[n+]2-c2ccccc2)c1Cl | inconclusive: 79.4 µM [inhibitor, single point]
48 | CCc1cccc(-n2nnc(S(=O)(=O)c3ccc(OC)cc3)c2C)c1 | inactive
49 | CCn1c(N)c(C(=O)NCC2CCCO2)sc1=S (stereo not drawn) | inconclusive: 89.1 µM [inhibitor, single point]
50 | CCn1cc(C(=O)N2CCN(c3cccc(C)c3)C(C)C2)c(=O)c2cc(S(=O)(=O)N3CCOCC3)ccc21 (stereo not drawn) | inactive
51 | CC(C1CC1)N(Cc1ccccc1)C(=S)Nc1ccccc1 (stereo not drawn) | inactive
52 | COc1ccc(Nc2nc(C(=O)NCCCN3CCOCC3)cs2)cc1 | inconclusive: 79.4 µM [inhibitor, partial curve]
53 | c1ccc(Nc2cccc(Nc3ccccc3)c2)cc1 | active: 31.6 µM
54 | CCOC(=O)/C(=C/C=C1\Sc2ccccc2N1CC)C(C)=O | inactive
55 | O=C(CN(Cc1ccc(Cl)c(Cl)c1)S(=O)(=O)c1ccccc1)N/N=C\c1ccc2c(c1)OCO2 | inactive
56 | O=C(NCc1ccco1)c1ccccc1F | inconclusive: 89.1 µM [inhibitor, partial curve]
57 | CCOC(=O)N1CCN(CC(O)COCC2=CCC3CC2C3(C)C)CC1 (stereo not drawn) | active: 3.55 µM
58 | CC1=C(C(=O)Nc2ccc(C(=O)N3CCN(c4cccc(Cl)c4)CC3)cc2)SCCO1 | inconclusive: 56.2 µM [inhibitor, partial curve]
59 | Cc1cc(C)c2nc(N3CCCC(C(=O)N4CCN(c5ncccn5)CC4)C3)sc2c1 (stereo not drawn) | inconclusive: 50.1 µM [inhibitor, partial curve]
60 | CCOC(=O)c1sc2nc(CC(=O)OC)nc(N3CCN(c4ccc(OC)cc4)CC3)c2c1C | inconclusive: 14.1 µM [inhibitor, full curve]
61 | Cc1nc2cc(NCc3nc4ccccc4n3Cc3ccccc3)ccc2n1C | inconclusive: 50.1 µM [inhibitor, partial curve]
62 | Cc1ccccc1CN1CCc2c(OCC(=O)N3CCCCC3)cccc2C1=O | inconclusive: 15.8 µM [inhibitor, single point]
63 | CCc1ccc(NC(=O)Cn2c(=O)nc(-c3ccccc3F)c3cc(Cl)ccc32)cc1 | inactive
64 | Nn1c(Nc2ccc(Cl)cc2)nncc1=O | inconclusive: 31.6 µM [inhibitor, single point]
65 | O=C(O)c1ccc(NC2(C(=O)O)CCCC2)cc1 | inconclusive: 39.8 µM [inhibitor, single point]
66 | COc1cc(OC)c(C=CC(=O)c2ccccc2O)c(OC)c1 | inconclusive: 11.2 µM [inhibitor, full curve]
67 | CCN(CC)C(=O)CSc1nnc(SCc2ccc(Cl)cc2)s1 | inconclusive: 100 µM [inhibitor, single point]
68 | Cc1ccc(-n2nc(C)c(C(=O)NCCCN3CCN(c4cccc(Cl)c4)CC3)c2-n2cccc2)cc1 | inconclusive: 50.1 µM [inhibitor, partial curve]

— PubChem BioAssay AID504339 (National Center for Advancing Translational Sciences (NCATS), 2011)
